Over roughly 33,000 sequences, “E-score (-0.5 to 0.5)” has its median near -0.053; the highest 2% begin near 0.37. This is one part of the list.
Biological target: Hap1 (UniProt P0CE41)
Assay: PBM E-score (8-mer binding enrichment) (E-score (-0.5 to 0.5)); higher = stronger / more preferred TF binding; most listed sequences are background and not binding sites
Conditions: protein concentration: 200 nM; construct: GST-DNA-binding domain
Method in brief: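 PURExpress in vitro transcription/translation supplied GST-tagged yeast transcription factors, either full-length or DNA-binding domain. Applied at about 100-200 nM to universal all-10-mer Agilent arrays double-stranded by primer extension, the bound protein was detected with fluorescent anti-GST. E-scores, modified Wilcoxon-Mann-Whitney statistics, were given by the Universal PBM Analysis Suite to ungapped eight-base words pooled with their reverse complements after masliner normalisation.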

UniProt P0CE41, sequence (P0CE41 whole entry): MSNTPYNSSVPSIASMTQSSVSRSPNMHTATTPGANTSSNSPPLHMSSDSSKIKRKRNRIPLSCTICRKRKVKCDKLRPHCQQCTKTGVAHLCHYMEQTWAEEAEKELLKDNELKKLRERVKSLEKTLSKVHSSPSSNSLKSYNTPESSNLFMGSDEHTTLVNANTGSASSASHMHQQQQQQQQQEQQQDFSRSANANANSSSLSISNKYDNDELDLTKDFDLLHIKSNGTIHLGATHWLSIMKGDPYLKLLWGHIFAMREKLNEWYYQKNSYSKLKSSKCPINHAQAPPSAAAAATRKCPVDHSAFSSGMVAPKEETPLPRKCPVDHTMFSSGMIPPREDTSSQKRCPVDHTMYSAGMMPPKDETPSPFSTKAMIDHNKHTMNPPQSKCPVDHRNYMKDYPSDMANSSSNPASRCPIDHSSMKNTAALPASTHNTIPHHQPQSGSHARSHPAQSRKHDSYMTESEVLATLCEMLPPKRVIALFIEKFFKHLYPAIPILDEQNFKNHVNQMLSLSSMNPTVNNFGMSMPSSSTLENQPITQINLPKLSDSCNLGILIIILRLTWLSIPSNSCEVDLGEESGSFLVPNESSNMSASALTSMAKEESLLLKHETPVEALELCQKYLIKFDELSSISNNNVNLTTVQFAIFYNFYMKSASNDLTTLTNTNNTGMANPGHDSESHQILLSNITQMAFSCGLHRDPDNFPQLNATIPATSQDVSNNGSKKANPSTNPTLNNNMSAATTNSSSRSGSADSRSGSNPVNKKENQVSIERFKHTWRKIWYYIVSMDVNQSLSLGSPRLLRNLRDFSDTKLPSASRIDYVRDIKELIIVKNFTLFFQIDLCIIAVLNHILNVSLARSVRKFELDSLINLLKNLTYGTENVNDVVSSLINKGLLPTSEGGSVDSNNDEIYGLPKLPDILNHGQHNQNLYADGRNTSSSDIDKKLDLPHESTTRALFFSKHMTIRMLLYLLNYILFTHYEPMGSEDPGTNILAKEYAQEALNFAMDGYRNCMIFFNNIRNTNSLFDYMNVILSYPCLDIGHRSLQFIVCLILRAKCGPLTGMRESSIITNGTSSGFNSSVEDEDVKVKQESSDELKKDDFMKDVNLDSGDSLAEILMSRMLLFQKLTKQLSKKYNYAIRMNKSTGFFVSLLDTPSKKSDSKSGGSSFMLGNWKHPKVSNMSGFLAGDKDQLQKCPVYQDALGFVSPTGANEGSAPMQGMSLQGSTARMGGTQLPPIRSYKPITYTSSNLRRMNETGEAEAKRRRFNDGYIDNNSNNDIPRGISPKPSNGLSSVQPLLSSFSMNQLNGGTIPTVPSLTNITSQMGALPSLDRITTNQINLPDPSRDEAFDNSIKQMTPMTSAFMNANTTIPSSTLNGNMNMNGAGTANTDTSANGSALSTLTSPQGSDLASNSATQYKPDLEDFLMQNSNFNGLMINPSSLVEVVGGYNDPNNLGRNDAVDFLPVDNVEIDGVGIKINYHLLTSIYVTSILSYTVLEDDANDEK

Row | Sequence | PBM E-score
1 | GGGTATAA | 0.287
2 | CTGTATCA | -0.251
3 | GAAGAATC | 0.196
4 | CACTCTGA | -0.178
5 | CAGTTCGA | -0.156
6 | ATTGTTGG | 0.0512
7 | AGTGGGAA | -0.0192
8 | ATTGCTAA | -0.114
9 | CACATTAG | -0.185
10 | CGGAACTA | 0.436
11 | AGACGACT | -0.234
12 | GGATATCC | 0.236
13 | GAATATCC | 0.118
14 | GATCCGCC | 0.29
15 | ACTGTGGA | -0.259
16 | AGGGAGGA | -0.294
17 | ATTCCCTG | -0.0487
18 | CGCCTGAC | 0.0343
19 | GTCGAGCA | -0.3
20 | GTAGCTAC | -0.221
21 | AATGGTCC | 0.143
22 | CCGCCTAG | -0.0794

Row | Sequence | PBM E-score
23 | AGCAGTAG | -0.24
24 | AAGCGCAA | 0.0371
25 | AGACCAGA | -0.267
26 | ATGGAGTC | -0.104
27 | GAACTGCC | -0.0156
28 | GACCGATA | 0.434
29 | ATCTGCGA | 0.00883
30 | CCCGATCG | 0.334
31 | ACGCAACT | 0.064
32 | CTTGGATC | -0.127
33 | CGGTGGAA | 0.199
34 | GAAGATAA | 0.0895
35 | CAAGTCAG | -0.19
36 | AACTTAAG | -0.0454
37 | AGGGAAAG | -0.0867
38 | AGAGACAT | -0.184
39 | AGTGACGA | -0.125
40 | AGAGTTTA | 0.00193
41 | CACGTCCG | 0.333
42 | GGGGTTAA | 0.386
43 | CGGACGGA | 0.397
44 | AACCGGAT | 0.286

Row | Sequence | PBM E-score
45 | ATGTTCCG | 0.287
46 | GATCATCC | 0.26
47 | ACAATTAG | -0.221
48 | CCCGCACC | 0.151
49 | CTCAAATA | -0.18
50 | GGTAAGAC | -0.0502
51 | ACAAGGCC | -0.116
52 | CTTATACA | -0.18
53 | AGCTGGAT | -0.176
54 | CTGATTTA | 0.067
55 | ACCAATCC | 0.152
56 | AAACTGGT | -0.0861
57 | CCTTGAAC | -0.1
58 | GACACTGA | 0.0247
59 | GAGTGTAC | -0.096
60 | GTAGCACA | -0.18
61 | GGGCAACA | 0.0459
62 | CACAAGCA | -0.283
63 | GATGATAA | -0.0336
64 | AACTGAGA | -0.226
65 | ATTCAAGG | -0.268
66 | CCCAATCG | 0.111

Row | Sequence | PBM E-score
67 | ACCAGCGT | -0.266
68 | AGCGTACA | -0.382
69 | ATCATGGG | -0.0614
70 | AGGCCCGG | 0.288
71 | CCCCCGAG | 0.308
72 | AGAAGTTA | -0.239
73 | AAGGGCCC | -0.00529
74 | ATCACGCG | 0.176
75 | AAAAGGTG | -0.144
76 | ATACTAGG | 0.00469
77 | AGGTTAGG | -0.116
78 | AACAAAAA | -0.129
79 | ACCCAGGT | -0.165
80 | TAGCACCA | -0.14
81 | GCGAGTCA | -0.0298
82 | CGCAACTC | 0.0922
83 | CTTGCGAA | 0.0558
84 | ACTGCGTC | -0.293
85 | ATCGTCGG | 0.301
86 | ACTCGTTC | -0.197
87 | ACGGAAAT | 0.432
88 | GAACGCAA | -0.0397

Row | Sequence | PBM E-score
89 | CCAGCGAC | -0.229
90 | CATGCAAC | -0.0671
91 | AAAAGACC | -0.0306
92 | AGTATAGG | -0.0933
93 | CTAATAAC | 0.0104
94 | CTTGCATC | -0.143
95 | ATGCCGCC | 0.195
96 | CTCGCGCC | 0.106
97 | AGCGACTA | -0.298
98 | CAAGGCTA | -0.0569
99 | ACATCCTA | -0.222
100 | ACTCTTTA | -0.181
101 | AATGCGTA | -0.00981
102 | GTGCGTGA | -0.0213
103 | CTAGTGTC | -0.0851
104 | AGGACGTG | -0.239
105 | GTTCTCGA | -0.169
106 | AATTAATT | -0.205
107 | GTTCGATA | 0.0968
108 | TAAGTCGA | -0.22
109 | ATCCGGGC | 0.364
110 | AATCCCCG | 0.403

— the supplement of paper PMC3334620
